Measurements: publication PMC6919601, “Identification of Plasmodium dipeptidyl aminopeptidase allosteric inhibitors by high throughput screening” (PLoS ONE, 2019)
The campaign covered roughly 110,000 compounds. About 230 (0.21%) showed an effect of 50% or more. This is one part of the list.
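Also: 30 min substrate incubation versus DMSO and 10 µM JCP410 controls.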

Each molecule was assayed against DPAP1 (Plasmodium falciparum, UniProt Q8IIJ9) (assay: primary screen, percent inhibition; read by cleavage of a fluorogenic dipeptide substrate; higher = more effect of the substance).
DPAP1, sequence (Q8IIJ9 whole entry, looked up): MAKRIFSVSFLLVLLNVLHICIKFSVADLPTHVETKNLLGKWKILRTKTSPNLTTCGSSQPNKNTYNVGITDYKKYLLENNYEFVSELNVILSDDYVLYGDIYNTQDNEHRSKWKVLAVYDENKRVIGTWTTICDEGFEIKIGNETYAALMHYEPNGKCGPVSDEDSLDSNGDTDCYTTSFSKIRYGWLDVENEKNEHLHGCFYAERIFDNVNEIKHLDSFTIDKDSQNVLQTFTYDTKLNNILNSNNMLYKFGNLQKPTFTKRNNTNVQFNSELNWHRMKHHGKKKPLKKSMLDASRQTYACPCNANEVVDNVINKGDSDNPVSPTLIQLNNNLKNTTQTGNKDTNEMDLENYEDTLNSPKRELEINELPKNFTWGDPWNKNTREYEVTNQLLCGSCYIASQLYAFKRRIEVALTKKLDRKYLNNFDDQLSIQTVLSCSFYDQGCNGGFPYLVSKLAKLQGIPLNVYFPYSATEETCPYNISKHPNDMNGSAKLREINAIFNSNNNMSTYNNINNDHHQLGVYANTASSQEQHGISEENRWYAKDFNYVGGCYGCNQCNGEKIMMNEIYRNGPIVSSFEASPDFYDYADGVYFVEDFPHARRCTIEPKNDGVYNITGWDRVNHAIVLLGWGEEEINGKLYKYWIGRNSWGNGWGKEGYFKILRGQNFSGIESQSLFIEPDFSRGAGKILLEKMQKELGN
Set-up: species or system P. falciparum D10 trophozoite lysates; single well
Cc1[nH]c2ccccc2c1/C=C1/S/C(=N\c2ccccc2)N(C)C1=O was tested, and the “% Inhibition @ 10 uM” value was 13.8%.
In the case of CC1CCN(C(=O)CCc2nc(-c3ccc(Cl)cc3)no2)CC1, the “% Inhibition @ 10 uM” value is reported as -3.12%.
For CN(C)CCN(Cc1ccccc1)Cc1ccccc1F, the “% Inhibition @ 10 uM” value was 3.19%.
With CC(=O)N1CCC2(CC1)OC(=O)C(C)=C2C(=O)N1CCOCC1 the “% Inhibition @ 10 uM” value was -4.67%.
With Cc1ccc(C(C)C)c(OCC(O)CN2CCN(CCO)CC2)c1 (centres unmarked) the “% Inhibition @ 10 uM” value was -2.28%.
CC(C)C(NS(=O)(=O)c1cccs1)C(=O)NC(c1ccccc1)c1ccccc1 (centres unmarked) was tested, and the “% Inhibition @ 10 uM” value was 1.37%.
With CCCCNc1cc(C)nc2c(-c3ccc(Cl)cc3)c(C)nn12 the “% Inhibition @ 10 uM” value was -2.72%.
With O=C1NC(c2ccccc2Cl)Nc2ccccc21 (centres unmarked) the “% Inhibition @ 10 uM” value was 0.161%.
For COc1ccccc1C(CC(=O)N1CCCC1)c1ccc2c(c1)OCO2 (centres unmarked), the “% Inhibition @ 10 uM” value was -2.29%.
With COc1cccc(C(=O)Nc2cccc(Cl)c2)c1 the “% Inhibition @ 10 uM” value was 5.31%.
CCOC(=O)N1CCN(C(=O)CCCCn2c(=O)[nH]c3ccsc3c2=O)CC1 was tested, and the “% Inhibition @ 10 uM” value was -4.06%.
With Cc1ccc(CNC(=O)c2cc3c(Cl)nc4ccccc4c3s2)o1 the “% Inhibition @ 10 uM” value was 1.66%.
With Cc1nc2cc(-c3ccccc3)nn2c(C)c1CCC(=O)N1CCN(Cc2ccccc2)CC1 the “% Inhibition @ 10 uM” value was 2.93%.
With CCC(C)NC=C1C(=O)NC(=O)NC1=O (centres unmarked) the “% Inhibition @ 10 uM” value was 14.1%.
In the case of CCCN1CCN(C(=O)CSc2nnc(C)c3c(C)n(-c4ccccc4)nc23)CC1, the “% Inhibition @ 10 uM” value is reported as -6.88%.
With COc1ccc(C(=O)c2c(C)oc3ccc(OC)cc23)cc1 the “% Inhibition @ 10 uM” value was 1.38%.
COc1ccc(CCNC(=O)Cn2cnc3c(nnn3-c3ccc(F)cc3)c2=O)cc1OC was tested, and the “% Inhibition @ 10 uM” value was -3.94%.
With O=C(c1ccco1)N1CCN(c2ccccn2)CC1 the “% Inhibition @ 10 uM” value was -3.21%.
With O=C(COc1ccccc1)Nc1ccccc1NC(=O)COc1ccccc1 the “% Inhibition @ 10 uM” value was -0.116%.
In the case of O=C(c1ccc2nc(N3CCCCC3)sc2c1)N1CCN(Cc2ccccc2)CC1, the “% Inhibition @ 10 uM” value is reported as -2.37%.
For Cc1ccc(Cl)cc1N(CC(=O)Nc1cccc(Br)c1)S(C)(=O)=O, the “% Inhibition @ 10 uM” value was 0.913%.
Cc1ccc(-c2cc(C(=O)NCCCn3ccnc3)c3ccccc3n2)s1 was tested, and the “% Inhibition @ 10 uM” value was -5.56%.
In the case of CCN1CCN(C2CCCCCC2)CC1, the “% Inhibition @ 10 uM” value is reported as -4.75%.
CC(=O)C1=C(O)C(=O)N(CCc2c[nH]c3ccccc23)C1c1cccc(F)c1 (centres unmarked) was tested, and the “% Inhibition @ 10 uM” value was -3.95%.
c1nc2c(ccc3nsnc32)[nH]1 was tested, and the “% Inhibition @ 10 uM” value was -2.14%.
With C=CCNC(=O)CN(c1ccccc1OC)S(=O)(=O)c1ccccc1 the “% Inhibition @ 10 uM” value was 3.17%.
With COc1cccc(N2/C(=N\C(=O)c3ccc(Br)cc3)SC3CS(=O)(=O)CC32)c1 (centres unmarked) the “% Inhibition @ 10 uM” value was -1.82%.
CC(=O)c1c(C)n(-c2cccc(C(F)(F)F)c2)c2ccc(O)cc12 was tested, and the “% Inhibition @ 10 uM” value was 11.4%.
For COc1ccc(OC)c(C2CC(=O)C3=C(C2)NC(=O)CC3c2ccc(O)c(OC)c2)c1 (centres unmarked), the “% Inhibition @ 10 uM” value was -2.24%.
With O=C(NCC1CCCO1)c1ccc(CN2CCc3ccccc3C2)cc1 (centres unmarked) the “% Inhibition @ 10 uM” value was -1.81%.
CCOC(=O)C1=C(C)N(C)C(SC)=NC1c1ccco1 (centres unmarked) was tested, and the “% Inhibition @ 10 uM” value was 3.01%.
In the case of CCC(=O)N1N=C2C3CCN(CC3)C2C1c1ccccc1 (centres unmarked), the “% Inhibition @ 10 uM” value is reported as -5.1%.
With CCCCOc1ccc(S(=O)(=O)N(Cc2ccccc2)Cc2ccccc2)cc1 the “% Inhibition @ 10 uM” value was 4.55%.
In the case of O=C(/C=C/c1ccc(Cl)cc1)NCCCn1ccnc1, the “% Inhibition @ 10 uM” value is reported as 5.44%.
In the case of COc1ccc2[nH]c3c(=O)n(CCCCC(=O)N4CCN(C)CC4)c(=S)[nH]c3c2c1, the “% Inhibition @ 10 uM” value is reported as 34.4%.
In the case of CCO/C(O)=C1/C(CC)=NC2=C(C(=O)CCC2)C1c1ccc(Cl)cc1 (centres unmarked), the “% Inhibition @ 10 uM” value is reported as -2.35%.
CCOc1cc(Br)c(/C=C2\SC(=O)NC2=O)cc1OC was tested, and the “% Inhibition @ 10 uM” value was -3.98%.
In the case of COc1ccccc1CNC(=O)c1sc2nc(-c3cccs3)ccc2c1N, the “% Inhibition @ 10 uM” value is reported as -1.47%.
For CC(=O)c1ccc(NC(=O)c2ccc(COc3cccc4ccccc34)o2)cc1, the “% Inhibition @ 10 uM” value was -5.31%.
For CC(C)C(=O)N1CCN(c2ccc(NC(=O)c3ccc(C#N)cc3F)cc2)CC1, the “% Inhibition @ 10 uM” value was 2.84%.
In the case of O=S(=O)(NC1CCCCC1N1CCN(c2ncccn2)CC1)c1ccccc1 (centres unmarked), the “% Inhibition @ 10 uM” value is reported as -9.95%.
With N#CC1=C(N)Oc2c(c(O)nc3nc(Nc4ccccc4)sc23)C1c1ccc(Br)cc1 (centres unmarked) the “% Inhibition @ 10 uM” value was -1.06%.
CC(CCCC(C)(C)O)CC1OCC(C)O1 (centres unmarked) was tested, and the “% Inhibition @ 10 uM” value was -2%.
With CC1=C(C(=O)NCCc2ccc(C)cc2)C2(CCC(C)CC2)OC1=O (centres unmarked) the “% Inhibition @ 10 uM” value was 4.77%.
CCOc1ccc(Br)cc1C1/C(=C(\O)OC(C)C)C(C)=Nc2nnnn21 (centres unmarked) was tested, and the “% Inhibition @ 10 uM” value was -1.72%.
In the case of COc1ccc(C(=O)Nc2ccc(C(=O)O)cc2)cc1, the “% Inhibition @ 10 uM” value is reported as -8.3%.
For COc1nc(C)c([N+](=O)[O-])c(N(C)c2ccccc2)n1, the “% Inhibition @ 10 uM” value was -0.736%.
COc1cc(CN2CCN(Cc3ccccc3Br)CC2)cc(OC)c1 was tested, and the “% Inhibition @ 10 uM” value was -11.4%.
In the case of Cc1ccc2c(c1)NC(c1ccco1)C1=C(O)CC(C)(C)CC1=N2 (centres unmarked), the “% Inhibition @ 10 uM” value is reported as 5.66%.
For CC(=O)Nc1ccc(NC(=O)CCCC(=O)O)cc1, the “% Inhibition @ 10 uM” value was -0.128%.
In the case of CC(C)(C)NC(=O)CN(C1CCCCC1)S(C)(=O)=O, the “% Inhibition @ 10 uM” value is reported as 2.44%.
CC1CCC2C(=O)N(CNc3cccc(Cl)c3)C(=O)C2C1 (centres unmarked) was tested, and the “% Inhibition @ 10 uM” value was -2.53%.
In the case of CC(C)SC1=NSC2=NC(=O)/C(=C\c3ccc(OS(C)(=O)=O)c(Cl)c3)C(=N)N21, the “% Inhibition @ 10 uM” value is reported as -3.51%.
N#CCNC(=O)[C@H](CC1CCCCC1)NC(=O)c1ccc(Cl)s1 was tested, and the “% Inhibition @ 10 uM” value was -5.21%.
With CCn1c(=O)c(C(=O)Nc2nc(-c3ccc(Br)cc3)cs2)c(O)c2ccccc21 the “% Inhibition @ 10 uM” value was -3.04%.
COc1ccccc1[C@H]1NCC[C@@]2(O)CCCC[C@H]12 was tested, and the “% Inhibition @ 10 uM” value was -5.5%.
c1ccc2cc(OCCCCCN3CCCCC3)ccc2c1 was tested, and the “% Inhibition @ 10 uM” value was 3%.
With COc1ccc(-c2cc(C(=O)Nc3sc(C)c(C)c3C(N)=O)c3ccccc3n2)c(OC)c1 the “% Inhibition @ 10 uM” value was 7.74%.
With Cc1c(C)n(C)c2ccc(C(=O)N3CCOCC3)cc12 the “% Inhibition @ 10 uM” value was 1.78%.
For Cc1cccc(C(=O)NC2=NC(=O)CC(c3ccccc3Cl)N2)c1 (centres unmarked), the “% Inhibition @ 10 uM” value was -3.3%.
For CCOc1ccc(-c2cc(CCCC(=O)NCCc3sccc3C)no2)cc1, the “% Inhibition @ 10 uM” value was 1.62%.
For Cc1ccc(C2CC(=O)N=C(N)N2)cc1 (centres unmarked), the “% Inhibition @ 10 uM” value was -4.76%.
In the case of COc1cccc2c1NC(c1ccccc1)C1CC=CC21 (centres unmarked), the “% Inhibition @ 10 uM” value is reported as 5.37%.
With Cc1cc(NC(=O)c2ccc(N(C)S(C)(=O)=O)cc2)ccc1Br the “% Inhibition @ 10 uM” value was -1.44%.
For Cc1cccn2c(=O)c3cc(C(=O)NCCc4ccccc4)c(=N)n(Cc4ccco4)c3nc12, the “% Inhibition @ 10 uM” value was 20.7%.
